Experimental data as given in PubChem BioAssay AID894 (National Center for Advancing Translational Sciences (NCATS), 2007).
Values joined by “and” are separate entries in the source; they are usually repeats but may differ in a detail not shown here. Identical values can stand only once. Hit rate of the full screen: of about 150,000 compounds, about 6,500 (4.3%) were called active. Inconclusive results, whose numbers are uncertain, are shown with a selection of clear calls. Calls come from the whole dose curve; as a rule, active = well fitted inhibition curve with a large enough effect (not every such curve was filed as active); inconclusive = small, poorly fitted or top-dose-only effect, or another doubt; inactive = no such curve, though single readings can be large or run the other way. A potency beside an inconclusive call is a rough fit, not a confirmed value.

target: 15-hydroxyprostaglandin dehydrogenase [NAD(+)] (Homo sapiens) (UniProt P15428); assay: qHTS Assay for Inhibitors of HPGD (15-Hydroxyprostaglandin Dehydrogenase); conditions: purified HPGD, NADH fluorescence kinetic, PGE2 substrate; activity change, negative = inhibition: active compounds read low
UniProt P15428, sequence (P15428 whole entry, looked up): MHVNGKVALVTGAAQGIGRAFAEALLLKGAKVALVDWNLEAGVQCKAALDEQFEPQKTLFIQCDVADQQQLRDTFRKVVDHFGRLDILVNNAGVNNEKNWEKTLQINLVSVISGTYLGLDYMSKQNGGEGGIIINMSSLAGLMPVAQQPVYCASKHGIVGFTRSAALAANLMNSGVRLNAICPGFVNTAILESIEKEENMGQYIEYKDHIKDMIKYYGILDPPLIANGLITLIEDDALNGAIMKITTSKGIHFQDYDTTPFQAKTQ
Procedure, shortened: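 20 nM HPGD preincubated 15 min at room temperature with compound in 50 mM Tris-HCl pH 8, 0.01% Tween 20. Started with 1 mM NAD+ and 30 uM prostaglandin E2; NADH fluorescence (360/450 nm) read 5 times over 30-s intervals, last minus first.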
% is set by controls: 0 for no effect and ±100 for the full control effect; potency is the fitted concentration of half-maximal effect; tags give direction and shape of the fitted curve.

SMILES | Potency | activity change, negative = inhibition
CCc1ccc(C(=O)/C=C/Nc2ccc(S(=O)(=O)Nc3onc(C)c3C)cc2)cc1 | active: 20 µM | –
O=C(Nc1c(C(=O)O)oc2ccc(Br)cc12)c1ccccc1 | inconclusive: 31.6 µM [inhibitor, single point] | –
CC(/C=N/n1c(-c2ccccc2)n[nH]c1=S)=C\c1ccco1 | inconclusive: 5.01 µM [inhibitor, partial curve] | –
O=C(NCCc1ccccc1)C1CCN(S(=O)(=O)c2cccs2)CC1 | – | inactive: -3.24%
CC(=O)NC(=S)Nc1ccc(NC(=O)COc2ccc(Cl)cc2)cc1 | – | inactive: -5.1%
CCOc1ccccc1CNC(=O)C1CCCN(c2nc3ccccc3o2)C1 (centres undefined) | – | inactive: -5.17%
N#C/C(=C\c1ccc(O)c(O)c1)C(=O)c1ccc(O)c(O)c1 | active: 7.94 µM | –
O=c1c(-c2cccs2)nc2cnc(Oc3cccc(Cl)c3)nc2n1C[C@H]1CCCO1 | inconclusive: 28.2 µM [inhibitor, partial curve] | –
O=c1oc2c(CN3CCOCC3)c(O)ccc2c2c1CCC2 | inconclusive: 28.2 µM [inhibitor, partial curve] | –
N#CCSc1nc(Nc2ccc3c(c2)OCO3)c2ccccc2n1 | inconclusive: 31.6 µM [inhibitor, single point] | –
Cc1noc(C)c1C(=O)N1CCC2(CC1)CCN(c1ccncc1)CC2 | inconclusive: 31.6 µM [inhibitor, partial curve] | –
Cc1ccc(-c2ccc(=O)n(CC(=O)NCCCN3CCCCC3)n2)cc1 | inconclusive: 20 µM [inhibitor, partial curve] | –
N#Cc1c(N)nc(SCc2ccccc2)c(C#N)c1-c1ccco1 | inconclusive: 25.1 µM [inhibitor, partial curve] | –
CCN(CC)S(=O)(=O)c1cccc(-c2n[nH]c(=S)n2/N=C/c2ccc(OC(F)F)cc2)c1 | active: 3.16 µM | –
CC(=O)c1ccc(S(=O)c2ccccc2)cc1 (centres undefined) | inconclusive: 39.8 µM [inhibitor, partial curve] | –
Cn1c(N)c(C(=O)COC(=O)c2cc(-c3ccco3)nc3ccccc23)c(=O)n(Cc2ccccc2)c1=O | inconclusive: 20 µM [inhibitor, partial curve] and inconclusive: 14.1 µM [inhibitor, partial curve] | –
CCC(=O)N/C(N)=N/c1nc(C)c2cc(OC)ccc2n1 | inconclusive: 22.4 µM [inhibitor, partial curve] | –
COc1ccc(-n2nc(C(=O)N3CCCCC3)c3ccccc3c2=O)cc1 | – | inactive: -4.51%
Cc1ccccc1NC(=O)CN1C(=O)S/C(=C\c2cccn2-c2cccc(C(=O)O)c2)C1=O | active: 28.2 µM | –
